From PMC4336329 (PLoS ONE, 2015) come the findings set out here.

Out of some 310,000 compounds screened, about 14,000 (4.5%) showed an effect of 50% or more. Effects have a minus sign here. The list shows a part of the results.
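Note: peak tail current of the secondary pulse compared with the same well before compound.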

This assay deals with human ether-à-go-go-related gene (hERG) potassium channel (human, UniProt Q12809). As to the kind of experiment: primary screen, population patch clamp on CHO cells stably expressing hERG.
Sequence of human ether-à-go-go-related gene (hERG) potassium channel (Q12809 whole entry, looked up): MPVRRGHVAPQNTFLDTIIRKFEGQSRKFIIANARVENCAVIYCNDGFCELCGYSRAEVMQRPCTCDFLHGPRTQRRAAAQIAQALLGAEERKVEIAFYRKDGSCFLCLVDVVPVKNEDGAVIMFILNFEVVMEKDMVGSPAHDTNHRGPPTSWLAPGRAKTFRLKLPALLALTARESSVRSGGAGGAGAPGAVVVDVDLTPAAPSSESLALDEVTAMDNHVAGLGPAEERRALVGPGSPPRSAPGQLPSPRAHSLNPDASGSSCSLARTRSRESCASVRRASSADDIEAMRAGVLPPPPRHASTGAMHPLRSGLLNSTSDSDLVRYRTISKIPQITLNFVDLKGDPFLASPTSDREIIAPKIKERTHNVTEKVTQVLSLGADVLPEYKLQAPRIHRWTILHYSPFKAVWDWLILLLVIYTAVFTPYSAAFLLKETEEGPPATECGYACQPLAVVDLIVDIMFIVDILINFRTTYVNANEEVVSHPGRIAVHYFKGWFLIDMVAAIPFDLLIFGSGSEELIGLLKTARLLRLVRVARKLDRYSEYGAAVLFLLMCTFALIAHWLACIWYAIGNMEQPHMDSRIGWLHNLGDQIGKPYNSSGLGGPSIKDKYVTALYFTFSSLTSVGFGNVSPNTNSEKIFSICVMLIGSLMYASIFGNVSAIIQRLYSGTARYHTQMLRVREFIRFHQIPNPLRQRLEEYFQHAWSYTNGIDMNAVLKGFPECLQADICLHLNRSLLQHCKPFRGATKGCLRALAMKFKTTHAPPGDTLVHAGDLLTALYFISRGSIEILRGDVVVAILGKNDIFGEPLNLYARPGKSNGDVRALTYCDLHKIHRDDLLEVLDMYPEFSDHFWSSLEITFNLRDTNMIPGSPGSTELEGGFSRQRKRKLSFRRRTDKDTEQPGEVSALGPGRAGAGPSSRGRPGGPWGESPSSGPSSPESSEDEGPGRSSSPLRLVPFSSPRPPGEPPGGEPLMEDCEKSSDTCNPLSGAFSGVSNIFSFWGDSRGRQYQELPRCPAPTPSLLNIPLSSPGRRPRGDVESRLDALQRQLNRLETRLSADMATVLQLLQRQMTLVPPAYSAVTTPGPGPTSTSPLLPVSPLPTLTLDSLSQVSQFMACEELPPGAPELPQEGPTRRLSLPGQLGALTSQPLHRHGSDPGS
Consider `CCOC(=O)C1CCN(c2c(NCc3ccc(C(=O)NCCOC)cc3)c(=O)c2=O)CC1`, for which the “hERG current change (%, negative = inhibition) at 10uM” value is listed as -7.38%.
For the molecule `CC(C)(C)c1cc(=O)[nH]c(SCc2ccccc2)n1`, the “hERG current change (%, negative = inhibition) at 10uM” value is given as 17.3%.
For the molecule `CCOC(=O)Cc1csc(NC(=O)Nc2ccc(Cl)cc2)n1`, the “hERG current change (%, negative = inhibition) at 10uM” value came to 11.5%.
For the molecule `C/C(=C\C(=O)c1ccccc1)NCc1ccc(F)cc1`, the “hERG current change (%, negative = inhibition) at 10uM” value is given as -22.7%.
Take `COc1cc(C(=O)Nc2ccccc2NC(=O)c2cc(OC)c(OC)c(OC)c2)cc(OC)c1OC`: the “hERG current change (%, negative = inhibition) at 10uM” value was -4.27%.
For `COc1ccc([C@@H]2[C@@H]3C(=O)N(C(C)(C)C)C(=O)[C@@H]3[C@]3(C)C(=O)N(c4cccc(Cl)c4)C(=O)N23)cc1`, the “hERG current change (%, negative = inhibition) at 10uM” value is on record as 4.71%.
For `COc1ccc(-c2nnc(Sc3nc4ccccc4o3)c3ccccc23)cc1`, the “hERG current change (%, negative = inhibition) at 10uM” value is reported as -3.62%.
Regarding `Cc1cc(C)c2c(N)c(S(=O)(=O)c3ccccc3)sc2n1`, the “hERG current change (%, negative = inhibition) at 10uM” value came to 7.32%.
Consider `N#Cc1ccsc1NC(=O)CSc1ncnc2ccccc12`, for which the “hERG current change (%, negative = inhibition) at 10uM” value is on record as -1.02%.
For the molecule `CN(Cc1ccccc1)C(=O)CCn1c(=O)c2cccn2c2cccnc21`, the “hERG current change (%, negative = inhibition) at 10uM” value is listed as -13.7%.
`Cc1cc(/C=N/Nc2ccc([N+](=O)[O-])cn2)c(C)n1-c1ccc(C(=O)O)cc1`: the “hERG current change (%, negative = inhibition) at 10uM” value was found to be 19.2%.
For `COc1ccc(C(CNC(=O)c2ccc(OCC3CCCO3)cc2)N2CCOCC2)cc1` (centres unmarked) the value was 14.5%; for `CCCCNC(=O)Cn1c(=O)c2c(ncn2CCC(C)C)n(Cc2ccccc2)c1=O`, 7.07%; for `O=C1C(=O)N(c2ccccc2)C(c2ccccc2[N+](=O)[O-])/C1=C(\O)c1ccccc1` (centres unmarked), 36.5%.
As to `O=[N+]([O-])c1cccc(C2=NCCC(c3ccccc3)O2)c1` (centres unmarked), the “hERG current change (%, negative = inhibition) at 10uM” value is -22.8%.
Take `O=C(CCCCCNC(=O)c1ccccc1)N/N=C/c1ccccc1O`: the “hERG current change (%, negative = inhibition) at 10uM” value is -6.36%.
`COC(=O)c1ccc(N2C(=O)CC(SCCN)C2=O)cc1` (centres unmarked): the “hERG current change (%, negative = inhibition) at 10uM” value is given as -16.3%.
`COc1ccccc1NC(=O)Nc1nc(CC(=O)N2CCN(c3ccccc3)CC2)cs1`: the “hERG current change (%, negative = inhibition) at 10uM” value was found to be 9.49%.
Turning to `COc1ccc(CCNC(=O)COC(=O)CCC(=O)c2ccc(F)cc2)cc1OC`, the “hERG current change (%, negative = inhibition) at 10uM” value came to 12.9%.
On to `Cc1ccc(/C=N/NC(=O)CSCc2ccc(Cl)cc2)cc1`, for which the “hERG current change (%, negative = inhibition) at 10uM” value is reported as 11.3%.
`O=C(Cn1cc(C(=O)c2ccccc2)c2ccccc21)NCc1ccco1`: the “hERG current change (%, negative = inhibition) at 10uM” value is given as -8.07%.
For `O=C(NCCc1ccccc1)C1CCC(Cn2c(=O)c3ccccc3n(Cc3cccc(F)c3)c2=O)CC1` (centres unmarked) the value was 5.01%; for `COc1cc(OC)c(NC(=O)CCCn2c(=O)oc3ccccc32)cc1Cl`, 9.61%.
